Screen size: about 52,000 compounds; about 1,700 (3.3%) were called active. Rule as the data show it: active = survival mostly below about 52% (no sharp cut-off); inactive = mostly above about 56%. Some of the results follow.

The test has as its system Wild type. In words: S. aureus survival, RN4220 and DeltatarO strains – OD600, teichoic acid synthesis inhibitors, primary screen (AID 463173). The settings on record: S. aureus RN4220 wild type/DeltatarO growth, OD600, 18 h, hits give low values, screened at 18.75 µg/mL (by protocol).
For `COc1ccc(CCNC(=O)CSc2n[nH]c(-c3ccccc3Cl)n2)cc1OC`, the survival was inactive: 73%. On to `COc1ccc(Cl)cc1NC(=O)CSC1=Nc2ccccc2C2=NC(CC(=O)NCc3cccs3)C(=O)N12` (stereo not given), for which the survival was inactive: 72%. The value for `Cc1ccc(NC(=O)C2=CC(c3ccc4c(c3)OCO4)=NS(=O)(=O)N2C)cc1` was inactive: 90%. With `CCc1ccc(-n2c(=O)c3cccnc3n2CC(=O)NCc2ccc(C)cc2)cc1`, the survival is inactive: 99%.

For `COc1cccc(Nc2nc3ccc(C)cc3nc2-n2nc(C)cc2C)c1`, the survival is inactive: 82%.

Take `COc1ccc(Nc2c(-c3ccccn3)nc3ccc(Cl)cn23)cc1`: the survival was inactive: 96%. Next, `CCc1cccc(Nc2ncnc3onc(-c4ccc(F)cc4)c23)c1`: inactive: 112%; `COC(=O)c1c(C)nn(-c2ccc(F)cc2)c1-n1cccc1`: inactive: 95%; `Cc1ccc(C(c2sc3nc(-c4ccco4)nn3c2O)N2CCC3(CC2)OCCO3)cc1` (stereo not given): inactive: 70%.

As for `Cc1ccc(NC(=O)CSc2nc(-c3ccccc3Cl)nc3cc(=O)[nH]n23)c(C)c1`, the survival is inactive: 88%. The value for `COc1cccc(N2CCN(S(=O)(=O)c3ccc(-c4ccno4)cc3OC)CC2)c1` was inactive: 57%. Next, `O=C(Nc1ccccc1O)c1csc2c1CCCC2`: inactive: 114%; `O=C(CSc1cn(CC(=O)N2CCCCC2)c2ccccc12)Nc1ccc(C(F)(F)F)cc1`: inactive: 99%; `COc1ccc(OC)c(C2NC(=O)NC(C)=C2C(=O)Nc2ccc(F)cc2)c1` (stereo not given): inactive: 81%. Take `CCOc1ccccc1C(=O)NC1CC2CCCC(C1)N2Cc1nnnn1Cc1ccco1` (stereo not given): the survival is inactive: 95%. On to `O=C(CSc1nc(-c2ccc(F)cc2)cc(C(F)(F)F)n1)NCCc1ccccc1`, for which the survival was inactive: 89%.

Turning to `COc1ccc(NC(=O)c2ccco2)cc1NC(=O)COc1ccc(Cl)cc1C`, the survival is inactive: 85%. Next, `COc1cccc(N2CCN(C(=O)c3ccc(NC(=O)c4nsc5ccccc45)cc3)CC2)c1`: inactive: 57%.

`CCN(CC)CCNC(=O)c1sc2ncccc2c1-n1cccc1`: the survival is inactive: 99%.

Consider `Cc1ccc(C(=O)NCc2ccc(F)cc2)cc1NC(=O)c1nsc2ccccc12`, for which the survival is inactive: 78%. On to `Cn1cc(S(=O)(=O)c2ccccc2)c(=O)c2cc(F)c(N3CCCCCC3)cc21`, for which the survival was inactive: 143%. The value for `Cc1cc(C)cc(-n2c(SCC(=O)Nc3ccc4c(c3)OCCO4)nc3c([nH]c4ccccc43)c2=O)c1` was inactive: 131%.

Regarding `CC1=C(c2ccc(C)c(C)c2)S(=O)(=O)N=C1N1CCC(C(=O)NC(C)Cc2ccco2)CC1` (stereo not given), the survival is inactive: 75%.

For `COc1ccc(CNC(=O)CCc2nc(-c3ccc(C)cc3)no2)c(OC)c1`, the survival is inactive: 120%. Consider `O=C(Nc1ccc2nc(SCC(=O)N3CCc4ccccc43)sc2c1)c1ccccc1F`, for which the survival was inactive: 129%.

`Cn1c(=O)n(C)c2cc(N3CCCCC3)c(NC(=O)c3ccc(C(C)(C)C)cc3)cc21`: the survival is inactive: 86%. Next, `CCCN1C2CCCC1CC(NC(=O)Nc1ccc(SC)cc1)C2` (stereo not given): inactive: 113%.

With `COc1ccc(C)cc1-n1cnc2cc(C(=O)NC3CCCC3)ccc21`, the survival was inactive: 123%.

For the molecule `COc1cc(C(=O)Nc2nonc2-c2ccc(C)c(C)c2)cc(OC)c1OC`, the survival is inactive: 88%. The value for `Cc1ccc(NC(=O)c2ccc(NC(=O)N3CCSc4ncccc43)cc2)c(C)c1` was inactive: 82%; that for `Cc1cc(C)n2c(SCC(=O)N(C)C3CCCCC3)nnc2n1` was inactive: 101%. Next, `Cc1cc(C(=O)Nc2c(C)nc3ccccn3c2=O)ccc1[N+](=O)[O-]`: inactive: 101%. The value for `CCOc1ccc(/C=C/c2nc(C#N)c(NCCc3ccccc3)o2)cc1` was inactive: 86%; that for `O=C(CSc1nc2c([nH]c3ccccc32)c(=O)n1-c1ccc(Cl)cc1)NCC1CCCO1` (stereo not given) was inactive: 70%; that for `Cc1ccccc1Nc1c(-c2cccs2)nc2cccc(C)n12` was inactive: 45%. As for `CC1Cc2cc(S(=O)(=O)N(Cc3ccccc3)C(C)C)ccc2N1C(=O)C1CCC1` (stereo not given), the survival is inactive: 102%.

Consider `COc1ccccc1NC(=O)Cn1c(=O)n(CCCCCC(=O)NCc2ccccc2)c(=O)c2sccc21`, for which the survival is inactive: 67%. The value for `CCOC(=O)c1c(C)oc2nc(C)nc(NCc3ccccc3OC)c12` was inactive: 70%; that for `CC(=O)Nc1ccc(S(=O)(=O)NC2(C(F)(F)F)NC(=O)N(CCc3ccc(F)cc3)C2=O)cc1` (stereo not given) was inactive: 137%. The value for `COc1cccc(C(=O)Nc2ccccc2-c2nnc(-c3cccc(OC)c3)o2)c1` was inactive: 64%. The value for `CCOc1cc(CNC(=O)Cn2c(-c3cccs3)cc3cc(F)ccc32)ccc1OC` was inactive: 72%.

Take `O=C1NC(=Nc2ccccc2)S/C1=C\c1ccc(C(=O)O)cc1`: the survival is inactive: 113%. Take `Cc1ccc(Cl)cc1NC(=O)CCC(=O)NCc1ccco1`: the survival is inactive: 113%. The value for `Cc1ccc(-n2c(SCC(N)=O)nc3c(oc4ccccc43)c2=O)cc1C` was inactive: 107%; that for `CCOC(=O)Cc1cc(=O)n2[nH]c(-c3ccccc3)cc2n1` was inactive: 118%. As to `COC(=O)C1=C(c2ccccc2)c2ccccc2S(=O)(=O)N1CC(=O)Nc1ccccc1Cl`, the survival is inactive: 61%. The value for `CCOC(=O)Cc1cc(=O)n2[nH]cc(C#N)c2n1` was inactive: 128%; that for `COC(=O)C(C)Sc1cc(C)c2ccccc2n1` (stereo not given) was inactive: 108%; that for `CCOCCCn1c(=N)c(C(=O)NCC2CCCO2)cc2c(=O)n3cccc(C)c3nc21` (stereo not given) was inactive: 79%. The value for `Cc1ccc(C)c(N2CCN(Cc3csc(C)c3)CC2)c1` was inactive: 107%. The value for `Cc1ccc(C)c(NC(=O)Cn2c(=O)n(Cc3ccccc3)c(=O)c3oc4ccccc4c32)c1` was inactive: 72%; that for `CCCN(CCC)CCCNC(=O)Cn1cnc2sc(C)c(S(=O)(=O)N3CCC(C)CC3)c2c1=O` was inactive: 75%; that for `O=C(Nc1cccc(F)c1)c1ccc(-c2ccccc2)s1` was inactive: 98%. Take `O=C(c1cccs1)N1CCCc2cc(NS(=O)(=O)c3ccc(F)cc3F)ccc21`: the survival was inactive: 71%. For the molecule `COC(=O)C1CCN(S(=O)(=O)c2cc3c4c(c2)CC(=O)N4CCC3)CC1`, the survival was inactive: 32%. `Cc1cccc2cc(CN(Cc3ccco3)Cc3nnnn3CCc3ccccc3)c(=O)[nH]c12`: the survival is inactive: 117%. With `Cc1cccc(NS(=O)(=O)c2ccc3c(c2)CCN3C(=O)C2CCC2)c1`, the survival is inactive: 69%. Next, `Cc1ccc(S(=O)(=O)c2cn(Cc3ccccc3Cl)c3ccc(F)cc3c2=O)cc1`: inactive: 98%; `COc1ccc2c(c1)NC(c1cccnc1)=NC(c1ccc(F)cc1)=N2`: inactive: 90%; `Cn1c(=O)c2c(nc(NCCN3CCOCC3)n2C)n(C)c1=O`: inactive: 109%. Next, `O=c1ccccn1Cc1cn2ccccc2n1`: inactive: 95%; `COc1ccc(Br)cc1CNC(=O)c1ccc2c(c1)N(Cc1ccc(C)cc1)CCS2`: inactive: 87%; `Cc1ccc(CN2C(=O)c3ccccc3Sc3ccc(C(=O)OCc4ccco4)cc32)cc1`: inactive: 73%. Turning to `CC(C)(C)N(Cc1ccccc1)C(=O)CSc1nnc(CNc2ccc(F)cc2)o1`, the survival is inactive: 114%. Next, `NS(=O)(=O)c1ccc2nc(NC(=O)COc3ccccc3)sc2c1`: inactive: 88%; `COCCNC(=O)CSc1nc(-c2ccccc2C)nc2c1c(=O)n(C)c(=O)n2C`: inactive: 77%. Turning to `COc1ccc(CCC(=O)NCCc2csc(-c3ccc(Cl)cc3)n2)cc1`, the survival was inactive: 126%.

In the case of `Cc1ccc2cccc(NC(=O)c3ccc(-c4cccc(Cl)c4)o3)c2n1`, the survival was inactive: 66%. The value for `Cc1ccc(NC(=O)Cn2c(=O)oc3cc(S(=O)(=O)N4CCCCCC4)ccc32)cc1Cl` was inactive: 92%; that for `CC(C(=O)NC1CC1)N1CCC(N2CCCCC2)CC1` (stereo not given) was inactive: 96%; that for `CC(C)C(NS(=O)(=O)c1ccc2c(c1)oc(=O)n2C)C(=O)NCCc1ccc(Cl)cc1` (stereo not given) was inactive: 90%. Turning to `CCOc1ccc(Nc2c(S(=O)(=O)c3ccccc3)cnc3ccccc23)cc1`, the survival is inactive: 38%. As for `CN(Cc1ccco1)S(=O)(=O)c1nnc(NC(=O)c2cccc(Cl)c2)s1`, the survival was inactive: 18%. In the case of `Cc1ccc(NC(=O)c2nc(S(C)(=O)=O)ncc2N(Cc2ccco2)Cc2ccco2)cc1C`, the survival is inactive: 92%. For `CCCN(CCC)C(=O)c1cc2c(=O)n3cccc(C)c3nc2n1C`, the survival is inactive: 78%. Next, `O=C1c2ccccc2S(=O)(=O)c2cc(-c3nn[nH]n3)ccc21`: inactive: 99%; `Cc1ccc(NC(=O)c2c(C)oc3ccc(O)c(CN4CCCCC4)c23)c(C)c1`: inactive: 92%.

`Cc1ccc2nc(C3CCCN(C(=O)NCc4ccccc4)C3)[nH]c2c1` (stereo not given): the survival was inactive: 113%. `C(=N\c1nncs1)/Nc1nncs1`: the survival is inactive: 104%. Next, `Cc1ccc(-c2nnc(Nc3ccc(S(N)(=O)=O)cc3)c3ccccc23)cc1S(=O)(=O)N1CCCCC1`: inactive: 109%.

Take `CC(=O)NC1N=C(C)N(c2ccccc2)C1=O` (stereo not given): the survival was inactive: 101%. Next, `CCC(=O)N1CCc2cc(Br)cc(S(=O)(=O)CCC(=O)N(CC)Cc3ccccc3)c21`: inactive: 66%. The value for `CN1C(=O)/C(=C/c2cccs2)SC1=S` was inactive: 110%; that for `Cc1ccc(NC(=O)CN2C(=O)C3(SCC(=O)N3c3ccc(F)c(F)c3)c3ccccc32)c(C)c1` (stereo not given) was inactive: 69%; that for `CC1=NN(C(=O)c2ccccc2)C(C)(O)C1(C)C` (stereo not given) was inactive: 103%. Next, `CCOCCCNC(=O)C(c1ccc(Cl)cc1)N(Cc1cccs1)C(=O)c1ccc(NC(C)=O)cc1` (stereo not given): inactive: 99%; `CC(C)(Oc1ccc(Cl)cc1)C(=O)Nc1nc2ccc(S(C)(=O)=O)cc2s1`: inactive: 69%; `CN(C)c1ccc(C(CNC(=O)c2c(F)cccc2Cl)N2CCOCC2)cc1` (stereo not given): inactive: 19%. In the case of `CN1/C(=N\O)c2cccc3cccc1c23`, the survival was inactive: 128%. Regarding `COc1ccc(Cl)cc1NC(=O)NCC1CCN(Cc2ccccc2F)CC1`, the survival was inactive: 76%.

The values are drawn from PubChem BioAssay AID463173 (ICCB-Longwood Screening Facility, Harvard Medical School, 2010).
